From paper PMC12040169 (PLOS Biology, 2025)
The list shows a part of the results.

Test system: T1, C. trachomatis L2/434/Bu expressing GFP (CTL2-GFP)
T1 construct: L2/434/Bu GFP intracellular growth in HeLa cells
Design: species or system HeLa; C. trachomatis total inclusion area by high-content imaging, normalised to DMSO
Conditions: total inclusion area; 28.5 h, 10 µM; inhibitor
In short: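 Imaging read-out: GFP inclusions and Hoechst nuclei captured by high-content imaging after fixation. Inclusion area/number = chlamydial growth; nuclei count = host cell viability. MIC calculated per earlier method.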

Compound	% of control remaining
O=C1CC2(CCN(S(=O)(=O)c3ccc(F)cc3)CC2)CN1 [CBK283353]	106.907
CC(=O)Cn1c(CN2CCOCC2)nc2c1c(=O)n(C)c(=O)n2C [CBK269508]	96.0299
Cc1csc(C2CN(Cc3cn(C)c(=O)n(C)c3=O)CCO2)n1 (stereo not shown) [CBK305475]	83.6
CN1CCN(c2nc(Nc3ccc(Cl)cc3)nc(Oc3ccccc3)n2)CC1 [CBK004778]	75.89
O=C(c1ccccc1)c1ccc2[nH]c(-c3ccc(NC(=O)c4ccccc4Cl)cc3)nc2c1 [CBK262706]	68.0241
OC1(c2cccnc2F)CCN(Cc2ccccc2F)CC1 [CBK284372]	81.2204
O=C(CN1CCCC1c1cccs1)Nc1cccc(C(=O)NC2CC2)c1 (stereo not shown) [CBK305895]	41.3886
CCN(CC(C)C#N)C(=O)c1cc2ccccc2oc1=O (stereo not shown) [CBK305992]	88.0058
O=C(O)COc1ccccc1/C=N/n1c(S)nnc1-c1ccc(Cl)cc1Cl [CBK264418]	110.867
Cc1nnc(N2CCN(Cc3sccc3Cl)CC2)nc1C [CBK304075]	49.8581
NC1=C(c2ccccc2)C(=O)CN1NC(=O)COc1ccccc1-c1ccccc1 [CBK269258]	85.7091
COC(=O)C[C@@H](C)NC(=O)[C@](OC)(c1ccccc1)C(F)(F)F [CBK017864]	112.034
Cc1ccc(-n2sc(=O)n(CCc3ccccc3)c2=O)cc1 [CBK113496]	79.6037
CN1CCN(C(=O)c2ccccc2NC(=O)c2ccc(C(C)(C)C)cc2)CC1 [CBK270054]	85.0496
Cc1nc(C)n(CC2CN(Cc3cn4ccccc4n3)CCO2)n1 (stereo not shown) [CBK303999]	74.9271
CC(=O)N1CCC(c2cc(-c3cccc(F)c3)n(C)n2)CC1 [CBK282097]	83.2522
Oc1ccc(SCCCCN2CCCCC2)cc1 [CBK033676]	71.2145
COc1ccc(-n2ncc(-c3ccc(Br)cc3F)n2)cc1OC [CBK112915]	87.4688
OCc1ccccc1-c1cnc(N2CCOCC2)c2nccn12 [CBK091265]	88.1458
CC(C)(Oc1ccc(Br)cc1)C(=O)NCCOc1ccccc1 [CBK268287]	88.9165

Compound	% of control remaining
O=C(Nc1cccc(I)c1)c1ccc(Oc2ccc(C(=O)Nc3cccc(I)c3)cc2)cc1 [CBK261201]	96.4094
O=C(COc1ccc2c3c(c(=O)oc2c1)CCC3)Nc1ccc(S(=O)(=O)N2CCOCC2)cc1 [CBK265640]	108.452
Oc1nc(CN2CCN(Cc3ccc4c(c3)OCO4)CC2)nc2ccccc12 [CBK074355]	106.541
Cc1nnc(NCCN2CCOCC2)[nH]c1=O [CBK267912]	85.2025
CC(=O)Oc1cc(Cl)ccc1C(=O)Nc1nnc(C(F)(F)F)s1 [CBK017569]	103.898
Cc1ccc(OCC(=O)NC(=S)Nc2cc(-c3nc4ncccc4o3)ccc2Cl)cc1 [CBK265214]	91.8917
CCc1c(C)sc2ncn(C3CCN(C(=O)C(C)C)CC3)c(=O)c12 [CBK282377]	74.0035
CN1CCC(N(C)C(=O)Nc2ccc(C(N)=O)cc2)C1 (stereo not shown) [CBK156015]	104.153
NNC(=O)CSc1nnc2ccc(C(F)(F)F)cn12 [CBK006897]	116.692
CC(=O)Nc1cccc(NC(=O)c2cccc(Cn3cc(Cl)cn3)c2)c1 [CBK265899]	106.701
Cc1ccc(C(=O)O)cc1N1C(=O)c2ccc(S(=O)(=O)c3ccc(C(=O)O)cc3)cc2C1=O [CBK262747]	105.137
COc1cccc(CN2CCC(Cc3ccccc3-c3ccc(C)cc3C)(C(=O)O)CC2)c1 [CBK286420]	78.8304
Cc1nc2nc(SCc3cc(=O)n4ccccc4n3)nn2c(C)c1Cc1ccccc1 [CBK294460]	81.5994
COc1cc(OC)cc(-c2nnc(SCc3cccc(C(=O)O)c3)[nH]2)c1 [CBK268736]	73.9433
COc1ccc(-c2nc(NS(C)(=O)=O)cc3cccnc23)cc1C [CBK085677]	106.349
COc1ccc(-c2cc(C(=O)NCCc3ccccn3)cnc2-c2cccc(C)c2)cc1 [CBK036730]	102.809
CC(=O)Nc1ccc(CCOc2nccnc2/C=C/c2ccccc2)cc1 [CBK106880]	104.152
CCOC(=O)c1cnc(SC(C)C(=O)N2CCc3ccccc32)nc1N (stereo not shown) [CBK305007]	41.177
CCn1cc(CN(CC(C)C)C(=O)c2c(C)nc3ccccn23)cn1 [CBK306862]	30.3473
Cc1cc(-c2cn(C)nc2C2CCCCN2C(=O)C2CCCC2)on1 (stereo not shown) [CBK283404]	106.417
